Results as given in patent US20090291088A1, “THERAPEUTIC COMBINATIONS OF ANTI-IGF-1R ANTIBODIES AND OTHER COMPOUNDS” (Biogen Idec MA Inc., priority 2008, published 2009).
Each block holds one molecule with its values, some of them ahead of it.

Assays:
IGF-1R = IGF-1R (Homo sapiens, UniProt P08069); assay: Internalization of IGF-1R in MCF-7 cells, confocal microscopy; assay type: cell-based; design: wild type IGF-1R expressed on MCF-7 tumor cells; endogenous in cells; host or cells: MCF-7; conditions: 10 μg/ml, time 0, 15 and 60 minutes
Description: MCF-7 cells were seeded at 50,000 cells per well into 8 well chamber slides (Becton Dickinson Collagen Type 1 coated culture slides, BD BioCoat™ #354630) 48 hours prior to staining procedures. Cells were routinely maintained below 20 passages. On day of staining procedures, culture media was discarded from each well and replaced with 500 μl cold incubation buffer (MEM Eagle ATCC #30-2003+1% BSA). Cells were washed 2× with this buffer for 3 min each wash. 250 μl of each mAb or human G4.P.agly antibody to be tested was then added to the appropriate well at a concentration of 10 μg/ml, diluted in incubation media, and incubated on ice for 1 hour. A murine anti-human-IGF-1R antibody (Lab Vision/NeoMarkers, clone 24-31 cat# MS-641) was used as a positive control antibody to compare degree of internalization. After the 1 hour incubation on ice, the time zero (t=0′) slide was washed 3× with 500 μl of cold wash buffer (PBS+1% BSA+2% Goat serum) for 3 min each wash (slides always kept on ice!). The t=0 slide was then fixed with 500 μl 4% paraformaldehyde (diluted with PBS from 16% stock; EMS #15710) for 15 minutes at room temperature. The t=0 slide was then washed again 3× with cold wash buffer for 3 minutes each wash, then left on ice. Meanwhile, the remaining slides were put into a 37° C. incubator for their designated time points (15 and 60 minutes). […]

[1] = biological target: T1, IGF-1R expressed on MCF-7 cells (Homo sapiens, UniProt P08069); assay: Flow cytometry binding to wild type IGF-1R on MCF-7 tumor cells; conditions: full-length antibodies
T1 construct: wild type IGF-1R expressed on MCF-7 tumor cells; endogenous in cells; host or cells: MCF-7
Description: The ability of Fabs to bind to the wild type IGF-1R was determined by flowcytometry using MCF-7 tumor cell line.
MCF-7 cells (Human Breast Adenocarcinoma from NCI) were split 24 hours prior to the setup of the assay to obtain 70% confluent monolayer. Routinely, MCF-7 cell line was maintained within 20 passages. Cells were lifted with cell dissociation buffer (Gibco catalog #13151-014), counted, washed and adjusted to 1×10^6 cells/ml and one ml of cells were then added to each tube (12×75 mm tube Falcon catalog# 352054). Cells were pelleted and supernatant removed by centrifugation at 1200 rpm for 5 min and 100 μl of diluted antibodies were then added to the cell pellet. Purified Fabs were tested at a starting concentration of either 210 or 60 μg/ml with 1:3 dilutions in FACS buffer, down to 0.001 μg/ml. FACS buffer used throughout the assay was PBS (without Ca++/Mg++) containing 1% BSA (Sigma catalog# A-7906; Sigma-Aldrich Corp. (St. Louis, Mo., USA)) and 0.1% Sodium Azide (Sigma catalog #S2002). […]
Once samples have been run and geometric means determined, antibody concentration (X axis) vs. geometric mean (Y axis) was graphed to the log 10, using Graphpad Prism (Prism Graph) graphing program. […]
The binding activity of human antibodies to wild type IGF-1R expressed on tumor cells was determined by flow cytometry. […]

binding to IGF-1R expressed on MCF-7 cells [1]: concentration dependent binding
B1: M13-C06.G4.P.agly: full-length hinge-modified aglycosylated human gamma 4, kappa antibody with the binding domain of Fab M13-C06 (antibody)
heavy: EVQLLESGGGLVQPGGSLRLSCAASGFTFSIYRMQWVRQAPGKGLEWVSGISPSGGTTWYADSVKGRFTISRDNSKNTLYLQMNSLRAEDTAVYYCARWSGGSGYAFDIWGQGTMVTVSSASTKGPSVFPLAPCSRSTSESTAALGCLVKDYFPEPVTVSWNSGALTSGVHTFPAVLQSSGLYSLSSVVTVPSSSLGTKTYTCNVDHKPSNTKVDKRV[human IgG4 Fc with S228P T299A (EU numbers) not written out]
light: DIQMTQSPLSLSASVGDRVTITCQASRDIRNYLNWYQQKPGKAPKLLIYDASSLQTGVPSRFGGSGSGTDFSFTIGSLQPEDIATYYCQQFDSLPHTFGQGTKLEIKRTVAAPSVFIFPPSDEQLKSGTASVVCLLNNFYPREAKVQWKVDNALQSGNSQESVTEQDSKDSTYSLSSTLTLSKADYEKHKVYACEVTHQGLSSPVTKSFNRGEC
internalization of IGF-1R (IGF-1R): rapid internalization of IGF-1R in 60 min

binding to IGF-1R expressed on MCF-7 cells [1]: concentration dependent binding
B2: M14-G11.G4.P: full-length human IgG4.P version of Fab M14-G11 (antibody, V domains shown)
VH: EVQLLESGGGLVQPGGSLRLSCAASGFTFSNYPMYWVRQAPGKGLEWVSRISSSGGRTVYADSVKGRFTISRDNSKNTLYLQMNSLRAEDTAVYYCARDRWSRSAAEYGLGGYWGQGTLVTVSS
VL: DIQMTQSPDSLAVSLGERATINCKSSQSVLYSSNNKNYLAWYQQKPGQPPKLLIYLASTRESGVPDRFSGSGSGTDFTLTISSLQAEDVAVYYCQQYYSTWTFGQGTKVEIK
internalization of IGF-1R (IGF-1R): internalization property similar to M13-C06.G4.P.agly
